Assay results from the supplement of paper PMC3334620.
The full ranking holds about 33,000 sequences; the median of “E-score (-0.5 to 0.5)” is about -0.04, and the highest 2% start at about 0.36. Some of the results follow.

The sequences below were run against T1, Hmlalpha2 (UniProt P0CY09) (assay: PBM E-score (8-mer binding enrichment) (E-score (-0.5 to 0.5)); higher = stronger / more preferred TF binding; most listed sequences are background and not binding sites). Conditions: protein concentration: 200 nM; construct: GST-full length.
T1 sequence: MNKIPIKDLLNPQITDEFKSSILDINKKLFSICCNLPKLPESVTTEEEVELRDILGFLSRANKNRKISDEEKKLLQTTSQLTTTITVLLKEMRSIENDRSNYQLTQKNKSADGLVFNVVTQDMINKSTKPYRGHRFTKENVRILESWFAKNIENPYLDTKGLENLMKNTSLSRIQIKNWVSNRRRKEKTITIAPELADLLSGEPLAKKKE
Procedure: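 Universal 'all 10-mer' protein binding microarrays (Agilent AMADID 015681) probed with GST-tagged S. cerevisiae TFs (full-length or DBD) made by in vitro transcription/translation (PURExpress), about 100-200 nM. Bound TF was detected with fluorescent anti-GST. Each ungapped 8-mer (which stands for itself and its reverse complement) is scored by the PBM enrichment score (E-score), a modified Wilcoxon-Mann-Whitney statistic from -0.5 to +0.5, computed with the Universal PBM Analysis Suite. Scale: above 0.35 generally sequence-specific binding.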

Row | Sequence | PBM E-score
1 | AAAATTCT | 0.13
2 | GAAATCAC | 0.22
3 | CTGTTCCC | -0.194
4 | CGGGGATC | -0.228
5 | AAGTTGTC | 0.0427
6 | AGTCGCCG | -0.111
7 | CAGCTCGA | -0.254
8 | CACACGAC | 0.223
9 | AAGTTGTG | 0.205
10 | AACAAATA | 0.265
11 | AAAAACGT | 0.121
12 | AGGCTTAC | -0.0131
13 | CGGCATAC | -0.0723
14 | TCCCACGA | -0.168
15 | CCGGACTA | -0.162
16 | GCTAGGTA | -0.00681
17 | AGGGTAAG | -0.0858
18 | AGATGAAT | -0.0634
19 | TAAACGCA | 0.242
20 | CTCTTTAA | 0.0786
21 | ATAACTCA | 0.183
22 | GAACGTAC | 0.149
23 | GGGCATAA | -0.127
24 | ACTCTTGA | -0.0484
25 | TCAATTAA | 0.197

Row | Sequence | PBM E-score
26 | GTGATCTA | 0.0484
27 | CATACGTA | 0.298
28 | ACCACATA | 0.126
29 | ACGCATCG | 0.135
30 | AGGCTGAT | -0.179
31 | CCAAAAAA | 0.168
32 | GCTCCCCC | -0.347
33 | GAACTCTA | 0.123
34 | CGTTGGGC | -0.0645
35 | GGAGCGAC | -0.153
36 | AGCCGCAC | -0.201
37 | CATCGTTC | -0.00732
38 | AACGTCAG | -0.0545
39 | AACGCTGT | 0.203
40 | ATTAGGGC | -0.0913
41 | AATATCCC | -0.213
42 | CAAATGCG | -0.014
43 | ATTGAACC | -0.0042
44 | GCAGTTAA | 0.0406
45 | ATTCCTTG | -0.0643
46 | TCCTACCA | -0.318
47 | GAAGGAAA | -0.0488
48 | TGAGGGCA | -0.284
49 | GGGTCAAC | -0.0284
50 | GGGTTCGA | -0.248

Row | Sequence | PBM E-score
51 | ACATCTAC | 0.32
52 | CTCATTGC | 0.00494
53 | GAATTTCA | 0.0247
54 | CCCTCTCG | -0.297
55 | CCAGGCAC | -0.122
56 | TTCGGAAA | -0.091
57 | CAACCAAC | -0.0457
58 | AGCCTCCA | -0.398
59 | ATTAGATA | 0.0792
60 | CGCCCTTC | -0.155
61 | CCTGACGA | -0.0138
62 | CTAGCCTA | -0.207
63 | TAGCGTAA | 0.278
64 | AGGACGGG | -0.24
65 | AGTATTGC | 0.09
66 | CTCTGCGC | -0.278
67 | GGTACAAC | 0.0961
68 | CAGAGTTC | -0.172
69 | CCCGCTAG | -0.22
70 | CGCCTCAC | -0.0221
71 | GCTAAAAC | 0.1
72 | GGTGTCAA | 0.0378
73 | GAACTTCA | -0.133
74 | GAGATAGC | -0.178
75 | AGTGCCGA | -0.221

Row | Sequence | PBM E-score
76 | ATCTTGAA | 0.194
77 | ACAGGGTC | -0.0681
78 | AGGGTACA | 0.0701
79 | CGTCTTAA | 0.121
80 | GTTTATGA | 0.0604
81 | CTTTTACC | 0.139
82 | CTCTGGCA | -0.338
83 | TTCTTCAA | 0.0864
84 | AATCAGCC | -0.18
85 | CTGTTGTC | 0.0827
86 | TAAGATAA | 0.00137
87 | CAGTGAGA | -0.154
88 | GACAAGAC | 0.0885
89 | CGCTTTTC | -0.135
90 | TCCAAACA | -0.0004
91 | CGAAGACG | -0.135
92 | AACGTTGT | 0.209
93 | CGATGTGA | 0.105
94 | ATACCTGG | -0.252
95 | AGCTTCTC | -0.186
96 | GAACTTAC | 0.205
97 | CACATACC | 0.151
98 | GGTGGCGA | -0.151
99 | CGGACAAA | -0.0269
100 | GTCACGAA | -0.0774

Row | Sequence | PBM E-score
101 | AGTCGGTC | -0.248
102 | AATGTTAC | 0.269
103 | CGGTCTTA | -0.135
104 | AAAACGGC | 0.0572
105 | CGGAACAA | -0.0371
106 | CTGGACGA | -0.19
107 | AGCAAAAT | 0.0449
108 | CGTGGGCC | -0.085
109 | CCTAGGGC | -0.32
110 | ATGTGCAG | 0.0111
111 | CATGAATG | 0.189
112 | ATTATTAC | 0.317
113 | ATATCATG | 0.101
114 | CCTTCTAA | -0.0347
115 | CGAATACA | 0.39
116 | ATGCAGAA | 0.0982
117 | AGTTTTCC | 0.0296
118 | AGCTTAAC | 0.196
119 | GCAGTAAA | -0.0928
120 | GCTGGCTA | -0.246
121 | CCAGCGGG | -0.278
122 | ATATGTAG | 0.3
123 | AAAACACG | 0.426
124 | TGCGGCAA | -0.154
125 | GTAACCAC | 0.00247

Row | Sequence | PBM E-score
126 | CATACTTC | 0.0601
127 | CTTCCTTC | -0.325
128 | AGAAAGAT | 0.078
129 | AAACGCTG | 0.177
130 | ATTAGGGA | -0.122
131 | CTATGCTC | -0.27
132 | AAGGTGTC | -0.0789
133 | ACGGTAGT | -0.178
134 | CGCAGGAG | -0.176
135 | AATAGGGG | -0.267
136 | GCCCACAC | -0.085
137 | AGGTACGG | -0.163
138 | ACAGGCGG | -0.0817
139 | ATGACATG | 0.363
140 | CAGAGTAG | -0.0538
141 | CGCTGATA | 0.0671
142 | ACGGCTGG | -0.289
143 | ACTGGCCT | -0.219
144 | TAAATATA | 0.234
145 | GCTTGGCA | -0.0531
146 | ACGACAAG | 0.0416
147 | GACAGTCC | -0.233
148 | GTCAAAAA | 0.0961
149 | CTTCGAGA | -0.125
150 | CCTAGTCA | -0.23

Row | Sequence | PBM E-score
151 | AAAGTGAC | 0.0152
152 | GTATGGCA | 0.0125
153 | GTCAGCTA | -0.0726
154 | ATGCCACG | -0.07
155 | CAGTATCA | -0.157
156 | AGAGGCAC | -0.189
157 | CAGTTCAC | 0.104
158 | GTGCGCGA | -0.198
159 | CACACAAA | 0.126
160 | ATTAACAG | 0.261
161 | ATATTGTG | 0.136
162 | TAACTGAA | 0.016
163 | CTGAGCTA | -0.0256
164 | TTAGAAAA | 0.0398
165 | ACTTTTCG | 0.0146
166 | ACCACGGA | -0.171
167 | GCAGTGCA | -0.146
168 | CACTTGTA | 0.213
169 | CCTGGCAG | -0.147
170 | CCGTGGAA | -0.0844
171 | ACTGCAAA | 0.0453
172 | TATGCTGA | 0.0494
